Measurements taken from PubChem BioAssay (Tox21).
Inconclusive means that the source gave no clear call. Such entries were picked first, then a sample of the others. For part of these data: Potencies beside an inconclusive call are fits to weak or partial responses and may not hold up. Some structures have more than one record in an assay (separate samples or runs), and their calls can disagree. Activity calls are given as the source filed them. Unless noted, calls come from the whole dose curve.

Experiments:
[1] = qHTS assay to identify small molecule antagonists of the sonic hedgehog signaling (Shh) pathway (AID 1259369); note: nearly all actives have a fitted effect of over 45% in size; note: potency is the fitted concentration of half-maximal effect; for activity change, negative = inhibition: % is set by controls: 0 for no effect and ±100 for the full control effect
Summary of the method: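 Conditioned medium drives Shh signalling in 3T3Gli1-Luc cells; compounds in DMSO co-applied, 24hr at 37 C, then luciferase luminescence.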

[2] = target: Estrogen receptor beta (Homo sapiens) (UniProt Q92731); assay: qHTS assay to identify small molecule agonists of the estrogen receptor beta (ER-beta) signaling pathway (AID 1259377; active = well fitted activation curve with a large enough effect in the signal ratio in the repeat runs, not every such curve was filed as active; inconclusive = weak or mixed curves, or effect the other way; the % refers to the signal ratio; note: potency is the fitted concentration of half-maximal effect; for activation: % is set by controls: 0 for no effect and ±100 for the full control effect); conditions: ER-beta-UAS-bla HEK293T, beta-lactamase FRET ratio, 16 h
Summary of the method: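 Beta-lactamase reporter readout: fluorescence of LiveBLAzer B/G FRET substrate after 2 h at room temperature, following 16 h compound treatment of ER-beta-UAS-bla HEK293T cells at 37C in 2% charcoal-stripped FBS medium.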

[3] = target: Estrogen receptor beta (Homo sapiens) (UniProt Q92731); assay: qHTS assay to identify small molecule antagonists of the estrogen receptor beta (ER-beta) signaling pathway (AID 1259378; active = well fitted inhibition curve with a large enough effect in the signal ratio in the repeat runs, not every such curve was filed as active; inconclusive = weak or mixed curves, or effect the other way; inactive = no such curve, though single readings can be large or run the other way; the % refers to the signal ratio; note: potency is the fitted concentration of half-maximal effect; for activity, negative = inhibition: % is set by controls: 0 for no effect and ±100 for the full control effect); conditions: ER-beta-UAS-bla HEK293T, beta-lactamase FRET ratio, 16 h; activity, negative = inhibition: at 92.4 µM (top of the series) unless noted
Summary of the method: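 Antagonist mode: compounds added to beta-lactamase reporter HEK293T ER-beta-UAS cells stimulated with E2 (1nM final), 16 hr at 37C. LiveBLAzer B/G FRET substrate, 2 hours room temperature, fluorescence read-out.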

[4] = qHTS assay to identify small molecule agonists of the estrogen receptor alpha (ER-alpha) signaling pathway in the presence of an antagonist - cell viability counter screen (AID 1259386; active = well fitted curve in the direction sought with a large enough effect in the repeat runs; inconclusive = weak or mixed curves; inactive = no such curve, though single readings can be large; an effect the other way counts as inactive or inconclusive;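 note: potency is the fitted concentration of half-maximal effect; cells exposed to compounds for 22 h at 37 °C before the viability read; nearly all actives have a fitted effect of over 30% in size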)
Summary of the method: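 ICI-182,780 at 10.0nM final accompanies the compound titration (15 concentrations, 22hr, 37C) on VM7Luc4E2 cells. The CellTiter-Fluor fluorescence readout runs in the same wells as the luciferase assay.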

[5] = target: Estrogen receptor (Homo sapiens) (UniProt P03372); assay: qHTS assay to identify small molecule agonists of the estrogen receptor alpha (ER-alpha) signaling pathway in the presence of an antagonist (AID 1259383); note: potency is the fitted concentration of half-maximal effect; nearly all actives have a fitted effect of over 15% in size
Summary of the method: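 Using VM7Luc4E2 cells seeded 24hr before treatment, antagonist ICI-182,780 (10.0nM final) was added, followed by compounds at 15 concentrations. Plates incubated 22hr; ONE-Glo luminescence quantified reporter activity.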

[6] = target: Progesterone receptor (Homo sapiens) (UniProt P06401); assay: qHTS assay to identify small molecule antagonists of the progesterone receptor (PR) signaling pathway (AID 1346795; active = well fitted inhibition curve with a large enough effect in the signal ratio in the repeat runs, not every such curve was filed as active; inconclusive = weak or mixed curves; the % refers to the signal ratio; note: potency is the fitted concentration of half-maximal effect); conditions: PR-UAS-bla HEK293T, beta-lactamase FRET ratio, 16 h; activity change, negative = inhibition: at 92.4 µM (top of the series) unless noted
Summary of the method: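 Beta-lactamase reporter, HEK293T PR-UAS-bla line; 2% charcoal-stripped FBS; 6 hr pre-incubation, 37C/5% CO2. Compound + R5020 1 nM final, 16 hr. LiveBLAzer B/G FRET substrate, 2 hr RT; fluorescence intensity read.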

[7] = qHTS assay to identify small molecule antagonists of the progesterone receptor (PR) signaling pathway - cell viability counter screen (AID 1346798; active = well fitted curve in the direction sought with a large enough effect in the repeat runs; inconclusive = weak or mixed curves; inactive = no such curve, though single readings can be large; an effect the other way counts as inactive or inconclusive; note: potency is the fitted concentration of half-maximal effect; nearly all actives have a fitted effect of over 50% in size)
Summary of the method: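 Luminescence readout (CellTiter-Glo, 30 min, RT) of viability in PR-UAS-bla HEK293T cells exposed to compound and R5020 agonist for 16 hr at 37C, 5% CO2; run in the same wells as the beta-lactamase reporter read.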

[8] = qHTS assay to identify small molecule agonists of the progesterone receptor (PR) signaling pathway - cell viability counter screen (AID 1346799); note: nearly all actives have a fitted effect of over 45% in size; note: potency is the fitted concentration of half-maximal effect
Summary of the method: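 HEK293T PR-UAS-bla, 3,000 cells/well, 2% charcoal-stripped FBS; 6 h settle, compound 16 h at 37C/5% CO2; LiveBLAzer 2 h RT, then CellTiter-Glo 30 min RT, luminescence read.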

[9] = qHTS assay to identify small molecule agonists of the TGF-beta/Smad signaling pathway (AID 1346859; active = well fitted activation curve with a large enough effect in the signal ratio in the repeat runs, not every such curve was filed as active; inconclusive = weak or mixed curves; the % refers to the signal ratio; note: % is set by controls: 0 for no effect and ±100 for the full control effect); conditions: SBE-bla HEK293T, TGF-beta/Smad beta-lactamase reporter, 5 h; activation: at 76.8 µM (top of the series)
Summary of the method: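 Read-out: fluorescence at 460 and 530 nm (405 nm excitation) after a 2 hr room-temperature incubation with beta-lactamase FRET substrate. SBE-bla HEK 293T cells had been treated with test compounds for 5 hr at 37 C.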

[10] = qHTS assay to identify small molecule agonists of the androgen receptor (AR) signaling pathway in the presence of an antagonist - cell viability counter screen (AID 1259379; active = well fitted curve in the direction sought with a large enough effect in the repeat runs; inconclusive = weak or mixed curves; inactive = no such curve, though single readings can be large; an effect the other way counts as inactive or inconclusive; note: potency is the fitted concentration of half-maximal effect; nearly all actives have a fitted effect of over 25% in size)
Summary of the method: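 A CellTiter-Fluor read-out measured viability of MDA-kb2 reporter cells (MMTV promoter with AR and GR response elements). Treatment: nilutamide 3.0uM final with compounds at 15 concentrations, 16 hr, 37C, 0% CO2.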

[11] = qHTS assay to identify small molecule agonists of the estrogen receptor beta (ER-beta) signaling pathway - cell viability counter screen (AID 1259380; active = well fitted curve in the direction sought with a large enough effect in the repeat runs; inconclusive = weak or mixed curves; inactive = no such curve, though single readings can be large; an effect the other way counts as inactive or inconclusive; note: nearly all actives have a fitted effect of over 30% in size; note: potency is the fitted concentration of half-maximal effect)
Summary of the method: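 Cells used were ER-beta-UAS-bla HEK293T in medium with 2% charcoal-stripped FBS. They were treated for 16 hr at 37C. Viability came from CellTiter-Glo luminescence.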

[12] = qHTS assay to identify small molecule antagonists of the estrogen receptor beta (ER-beta) signaling pathway - cell viability counter screen (AID 1259382; active = well fitted curve in the direction sought with a large enough effect in the repeat runs; inconclusive = weak or mixed curves; inactive = no such curve, though single readings can be large; an effect the other way counts as inactive or inconclusive; note: potency is the fitted concentration of half-maximal effect; nearly all actives have a fitted effect of over 55% in size)
Summary of the method: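 Agonist-stimulated (1nM E2) ER-beta-UAS-bla HEK293T cells are incubated with library compounds for 16 hr at 37C. Cell viability is then assessed in the reporter-assay wells by adding CellTiter-Glo and reading luminescence after 30 min.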

[13] = qHTS assay to identify small molecule agonists or antagonists of the thyroid stimulating hormone receptor (TSHR) signaling pathway - wild type cell line counter screen (AID 1259384); conditions: HEK293 wild type, cAMP HTRF counter-screen; cAMP activity change: at 92.4 µM (top of the series), stronger effect = higher value unless noted; note: potency is the fitted concentration of half-maximal effect
Summary of the method: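 Counter screen in untransfected Hek293: compounds (15-point titration, triplicate) plus phosphodiesterase inhibitor Ro20-1724 added after 18 h plating; 30 min RT. Intracellular cAMP via competitive d2/cryptate immunoassay, 1 h incubation.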

[14] = target: Thyrotropin receptor (Homo sapiens) (UniProt P16473); assay: qHTS assay to identify small molecule antagonists of the thyroid stimulating hormone receptor (TSHR) signaling pathway (AID 1259385); conditions: TSHR-HEK293 cAMP HTRF, TSH-stimulated antagonist mode; activity change, negative = inhibition: at 92.4 µM (top of the series) unless noted; note: nearly all actives have a fitted effect of over 20% in size; note: potency is the fitted concentration of half-maximal effect
Summary of the method: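 Antagonist mode: compound-treated TSHR-expressing HEK293 cells were stimulated with 1.5 ng/mL TSH (final) in presence of Ro20-1724 for 30 min at RT. HTRF cAMP detection after 1 h; each compound tested at 15 concentrations, triplicate.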

[15] = target: Progesterone receptor (Homo sapiens) (UniProt P06401); assay: qHTS assay to identify small molecule agonists of the progesterone receptor (PR) signaling pathway (AID 1346784); conditions: PR-UAS-bla HEK293T, beta-lactamase FRET ratio, 16 h; activation: at 92.4 µM (top of the series) unless noted; note: % is set by controls: 0 for no effect and ±100 for the full control effect; nearly all actives have a fitted effect of over 30% in size
Summary of the method: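 HEK 293T PR-UAS-bla reporter cells, 2% charcoal-stripped FBS; 6 hr settle at 37C/5% CO2, compound (DMSO) 16 hr, LiveBLAzer B/G FRET substrate 2 hr RT, fluorescence intensity read.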

[16] = activation: at 92.4 µM (top of the series) unless noted
Tags give direction and shape of the fitted curve or compound fluorescence and quenching.

Chain of UniProt Q92731 (Q92731 whole entry, looked up): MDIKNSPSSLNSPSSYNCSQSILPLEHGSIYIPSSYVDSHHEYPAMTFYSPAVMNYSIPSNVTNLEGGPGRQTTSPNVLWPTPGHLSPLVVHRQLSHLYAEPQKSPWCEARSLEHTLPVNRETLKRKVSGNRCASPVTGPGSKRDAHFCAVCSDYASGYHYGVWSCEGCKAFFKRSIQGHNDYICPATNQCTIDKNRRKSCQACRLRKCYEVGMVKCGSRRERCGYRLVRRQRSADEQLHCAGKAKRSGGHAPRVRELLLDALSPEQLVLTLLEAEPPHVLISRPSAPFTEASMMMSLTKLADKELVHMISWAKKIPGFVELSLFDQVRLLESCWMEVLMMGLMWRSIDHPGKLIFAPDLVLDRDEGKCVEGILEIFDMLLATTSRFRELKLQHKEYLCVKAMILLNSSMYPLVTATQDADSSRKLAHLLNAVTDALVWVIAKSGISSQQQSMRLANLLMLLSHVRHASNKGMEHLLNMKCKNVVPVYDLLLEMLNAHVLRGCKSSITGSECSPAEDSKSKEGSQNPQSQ
Chain of UniProt P06401 (P06401 whole entry, looked up): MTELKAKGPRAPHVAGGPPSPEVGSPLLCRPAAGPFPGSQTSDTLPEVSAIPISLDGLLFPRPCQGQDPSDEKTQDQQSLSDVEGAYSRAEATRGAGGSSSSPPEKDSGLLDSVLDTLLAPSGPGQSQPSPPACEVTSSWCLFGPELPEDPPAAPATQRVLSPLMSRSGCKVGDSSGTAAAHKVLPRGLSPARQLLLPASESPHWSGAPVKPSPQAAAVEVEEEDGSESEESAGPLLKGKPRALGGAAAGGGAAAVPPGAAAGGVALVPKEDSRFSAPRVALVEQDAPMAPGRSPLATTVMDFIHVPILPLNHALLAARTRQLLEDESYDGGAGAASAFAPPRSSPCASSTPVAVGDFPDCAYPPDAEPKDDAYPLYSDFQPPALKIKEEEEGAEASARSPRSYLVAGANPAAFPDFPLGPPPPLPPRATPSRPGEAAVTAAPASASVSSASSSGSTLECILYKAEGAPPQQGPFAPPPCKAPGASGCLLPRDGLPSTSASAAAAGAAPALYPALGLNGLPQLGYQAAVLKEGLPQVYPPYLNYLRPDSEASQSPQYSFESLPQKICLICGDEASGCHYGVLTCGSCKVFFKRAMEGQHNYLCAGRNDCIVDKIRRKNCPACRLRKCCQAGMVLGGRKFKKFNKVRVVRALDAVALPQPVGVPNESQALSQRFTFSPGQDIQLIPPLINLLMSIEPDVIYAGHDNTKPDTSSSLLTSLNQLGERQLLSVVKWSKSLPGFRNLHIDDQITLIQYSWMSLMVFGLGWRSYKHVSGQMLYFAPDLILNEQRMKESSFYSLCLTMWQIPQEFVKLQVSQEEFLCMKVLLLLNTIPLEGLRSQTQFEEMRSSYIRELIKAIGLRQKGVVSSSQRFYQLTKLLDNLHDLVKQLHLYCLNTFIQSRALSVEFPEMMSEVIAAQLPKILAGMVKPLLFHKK
Chain of UniProt P16473 (P16473 whole entry, looked up): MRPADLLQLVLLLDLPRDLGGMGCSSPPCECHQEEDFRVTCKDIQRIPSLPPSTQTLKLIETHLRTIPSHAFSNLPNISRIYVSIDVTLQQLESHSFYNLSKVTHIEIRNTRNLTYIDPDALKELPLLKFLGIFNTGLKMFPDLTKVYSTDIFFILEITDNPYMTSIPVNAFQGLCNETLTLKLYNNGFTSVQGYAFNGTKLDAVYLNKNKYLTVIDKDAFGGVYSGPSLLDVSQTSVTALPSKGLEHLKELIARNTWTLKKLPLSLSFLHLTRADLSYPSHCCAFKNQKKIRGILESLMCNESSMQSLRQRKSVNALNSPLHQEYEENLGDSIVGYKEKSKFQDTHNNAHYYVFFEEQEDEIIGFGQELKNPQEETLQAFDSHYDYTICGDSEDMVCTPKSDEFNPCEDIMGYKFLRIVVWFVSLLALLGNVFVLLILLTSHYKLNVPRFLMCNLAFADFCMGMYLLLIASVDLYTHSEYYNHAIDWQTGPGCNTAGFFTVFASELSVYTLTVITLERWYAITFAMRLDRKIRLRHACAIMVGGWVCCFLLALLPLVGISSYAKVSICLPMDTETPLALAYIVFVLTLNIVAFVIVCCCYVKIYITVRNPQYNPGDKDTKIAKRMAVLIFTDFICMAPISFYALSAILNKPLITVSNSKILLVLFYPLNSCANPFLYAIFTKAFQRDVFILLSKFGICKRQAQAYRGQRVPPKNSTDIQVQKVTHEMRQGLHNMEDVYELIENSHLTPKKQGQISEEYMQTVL
Chain of UniProt P03372 (P03372 whole entry, looked up): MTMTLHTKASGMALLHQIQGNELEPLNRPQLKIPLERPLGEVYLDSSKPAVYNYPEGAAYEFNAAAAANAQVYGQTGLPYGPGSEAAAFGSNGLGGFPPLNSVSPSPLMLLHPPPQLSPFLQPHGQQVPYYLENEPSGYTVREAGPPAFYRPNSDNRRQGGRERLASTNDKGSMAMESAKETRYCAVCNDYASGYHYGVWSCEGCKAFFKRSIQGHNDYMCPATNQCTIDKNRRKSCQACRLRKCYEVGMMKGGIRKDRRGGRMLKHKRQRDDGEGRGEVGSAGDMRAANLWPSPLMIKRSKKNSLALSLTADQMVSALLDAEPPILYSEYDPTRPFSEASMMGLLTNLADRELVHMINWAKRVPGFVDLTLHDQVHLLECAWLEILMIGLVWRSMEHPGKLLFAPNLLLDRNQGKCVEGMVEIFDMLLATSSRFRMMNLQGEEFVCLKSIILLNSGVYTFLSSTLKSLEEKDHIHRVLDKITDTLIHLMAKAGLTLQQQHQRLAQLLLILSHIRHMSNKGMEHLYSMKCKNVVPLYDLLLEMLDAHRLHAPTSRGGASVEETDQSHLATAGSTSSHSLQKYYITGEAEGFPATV

In the case of `Oc1ccc2c(c1)CCC2`, the Potency [1] is reported as inconclusive: 6.86 µM [inhibitor, full curve] and the activation [2, 16] is reported as inconclusive: 6.41%.
With `CC(=O)OCc1ccco1` the Potency [1] was active: 1.53 µM and inactive, the Potency [2, 16] was “inactive” and the activity, negative = inhibition [3] was inconclusive: 24.9%. The Potency [4] was inconclusive: 2.73 µM [cytotoxic, single point].
With `Cc1c(N(C)CS(=O)(=O)O)c(=O)n(-c2ccccc2)n1C` the Potency [1] was inconclusive: 6.81 µM [inhibitor, single point], the activation [2, 16] was inconclusive: 10.2% and the activation ([2]; at 42.5 µM (top of the series)) was inactive: -1%.
With `COC(=O)C(C)O` (centres undefined) the Potency [1] was inconclusive: 44.2 µM [inhibitor, partial curve, poor fit].
In the case of `COc1ccc(C(=O)c2cccc(O)c2)c(OC)c1`, the Potency [1] is reported as inconclusive: 54.4 µM [inhibitor, single point], the Potency [2, 16] is reported as inconclusive: 68.5 µM [fluorescent] and the Potency [3] is reported as active: 43.2 µM. The Potency [5] was inconclusive: 54.4 µM [activator, partial curve, poor fit], the activity change, negative = inhibition [6] was inconclusive: -41.7% and the Potency [7] was inconclusive: 61 µM [rising, single point]. For the same molecule, the Potency [8] was inconclusive: 68.5 µM [rising, partial curve, poor fit].
With `C=CC(=O)OCCCl` the Potency [1] was “inactive”, the Potency [2, 16] was “inactive” and the Potency [8] was “inactive”. The Potency [9] was “inactive”.
For `CC[C@]12CCCN3CCc4c(n(c5ccccc45)C(=O)C1)[C@@H]32`, the Potency [1] was inconclusive: 33.5 µM [inhibitor, single point], the Potency [2, 16] was “inactive” and the Potency [10] was inconclusive: 16.8 µM [cytotoxic, partial curve, poor fit]. For the same molecule, the Potency [11] was inconclusive: 13.3 µM [cytotoxic, partial curve], the Potency [12] was inconclusive: 29.8 µM [cytotoxic, partial curve, poor fit] and the Potency [6] was active: 13.3 µM.
For `CC1=CCC(O)(C(C)C)CC1` (centres undefined), the Potency [1] was “inactive”, the Potency [2, 16] was inconclusive: 24.3 µM [activator] and the Potency [11] was “inactive”. The activity change, negative = inhibition [6] was inconclusive: 4.11%.
In the case of `Nc1ccc(N)c2c1C(=O)c1ccccc1C2=O`, the Potency [1] is reported as inconclusive: 8.63 µM [inhibitor, full curve], the Potency [2, 16] is reported as inconclusive: 8.63 µM [rising, full curve] and the Potency [12] is reported as inconclusive: 8.63 µM [cytotoxic, full curve]. For the same molecule, the Potency [13] was inconclusive: 34.4 µM, the Potency [14] was inconclusive: 27.3 µM [falling, partial curve] and the Potency [7] was active: 27.3 µM.
In the case of `CC1CC(=O)NN=C1c1ccc(NCC(C)(C)NCC(O)COc2cc(Cl)ccc2C#N)cc1` (centres undefined), the Potency [1] is reported as inconclusive: 18.8 µM [inhibitor, partial curve], the Potency [2, 16] is reported as “inactive” and the Potency [11] is reported as inconclusive: 5.31 µM [cytotoxic, partial curve]. The Potency [4] was inconclusive: 11.9 µM [cytotoxic, partial curve, poor fit].
For `OCCCO`, the Potency [1] was inconclusive: 1.01 µM [inhibitor, full curve, poor fit], the activation [2, 16] was inconclusive: 3.85% and the Potency [14] was “inactive”.
With `O=C(Nc1ccc([N+](=O)[O-])cc1)Nc1ccc([N+](=O)[O-])cc1` (tested in a mixture with another compound) the Potency [1] was inconclusive: 33.5 µM [inhibitor, single point], the Potency [2, 16] was “inactive” and the Potency [12] was inconclusive: 0.596 µM [cytotoxic, full curve, poor fit]. For the same molecule, the activity change, negative = inhibition [6] was inconclusive: 1.73% [at 42.5 µM], the Potency [7] was active: 1.19 µM and the Potency [8] was “inactive”.
In the case of `CCCCC(CC)CO` (centres undefined), the Potency [1] is reported as “inactive”, the Potency [2, 16] is reported as inconclusive: 21.4 µM [activator] and the Potency [6] is reported as “inactive”. For the same molecule, the Potency [7] was inconclusive: 27.3 µM [cytotoxic, single point] and the Potency [8] was inconclusive: 68.6 µM [cytotoxic, single point].
In the case of `Cc1ccc(N(C)C)cc1`, the Potency [1] is reported as inconclusive: 15.3 µM [inhibitor, single point] and the Potency [3] is reported as “inactive”.
With `CC(=O)OC/C=C(\C)CC/C=C(\C)CCC=C(C)C` the Potency [1] was inconclusive: 54.5 µM [inhibitor], the Potency [2, 16] was “inactive” and the Potency [6] was “inactive”.
In the case of `CCCCCCCCCCCCCCCCCBr`, the activity change, negative = inhibition [1] is reported as inactive: -0.552% [at 19 µM], the activation [2, 16] is reported as inactive: -3.04% [at 19 µM] and the activation [9] is reported as inactive: 2.19% [at 15.8 µM].
With `COC(=O)Nc1ccc(Cl)c(Cl)c1` the Potency [1] was inconclusive: 68.2 µM [inhibitor, single point], the Potency [2, 16] was “inactive” and the Potency [14] was “inactive”. For the same molecule, the Potency [15] was “inactive”, the Potency [6] was active: 30.5 µM and the Potency [8] was inconclusive: 27.2 µM [rising, partial curve, poor fit].
